This note sets out measurements from paper PMC12548464.

Experiment [1] has as its target T1, endogenous TIP47 (human (endogenous in Huh-7.5)) (UniProt O60664).
T1 sequence: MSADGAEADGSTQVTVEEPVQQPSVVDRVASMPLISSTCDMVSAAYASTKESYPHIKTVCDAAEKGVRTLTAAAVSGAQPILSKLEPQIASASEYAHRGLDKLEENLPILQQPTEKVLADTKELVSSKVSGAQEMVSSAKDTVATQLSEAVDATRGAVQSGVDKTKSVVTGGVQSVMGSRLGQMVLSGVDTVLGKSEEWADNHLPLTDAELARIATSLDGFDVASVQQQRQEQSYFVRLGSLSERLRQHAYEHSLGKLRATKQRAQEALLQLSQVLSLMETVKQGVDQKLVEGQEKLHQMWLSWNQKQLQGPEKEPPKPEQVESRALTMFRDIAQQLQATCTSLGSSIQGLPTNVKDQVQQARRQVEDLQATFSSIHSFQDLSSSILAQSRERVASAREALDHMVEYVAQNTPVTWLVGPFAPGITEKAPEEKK
Description: co-IP; Huh-7.5 cells transfected with pCAG-SPG20-FLAG, 48 h; endogenous TIP47 immunoprecipitated with anti-TIP47 rabbit PAb, isotype control rabbit IgG as negative control (Fig. 7E); immunoblot. In general terms: In western blotting, separated proteins are transferred to a membrane and probed.

For experiment [2], the target named is T2, HA-TIP47 (tail-interacting protein of 47 kDa, TIP47/PLIN3) (UniProt O60664).
T2 sequence: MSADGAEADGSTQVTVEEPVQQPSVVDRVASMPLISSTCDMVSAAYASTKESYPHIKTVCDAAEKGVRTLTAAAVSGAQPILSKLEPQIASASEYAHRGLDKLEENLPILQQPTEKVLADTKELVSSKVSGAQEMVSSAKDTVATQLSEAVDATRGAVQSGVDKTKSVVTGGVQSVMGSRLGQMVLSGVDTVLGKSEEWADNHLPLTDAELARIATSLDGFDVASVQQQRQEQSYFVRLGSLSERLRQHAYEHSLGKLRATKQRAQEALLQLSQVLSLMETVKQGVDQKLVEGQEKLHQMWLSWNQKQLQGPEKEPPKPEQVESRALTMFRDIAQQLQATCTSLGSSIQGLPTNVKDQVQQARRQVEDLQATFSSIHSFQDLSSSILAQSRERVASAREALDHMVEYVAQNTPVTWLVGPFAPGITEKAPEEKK
Description: condition: only with co-expressed wild-type HA-NS3/4A protease (cleaves SPG20); co-IP; as a2, but with co-expressed wild-type HA-NS3/4A protease, which cleaves SPG20; immunoprecipitated with anti-TIP47 MAb (Fig. 7D); immunoblot.

The target of experiment [3] is T2, HA-TIP47 (tail-interacting protein of 47 kDa, TIP47/PLIN3). Description: co-IP; Huh-7.5 cells co-transfected with pCAG-SPG20-FLAG and pCAG-HA-TIP47, 48 h; immunoprecipitated with anti-FLAG M2 beads (Fig. 7B) or anti-TIP47 antibody (Fig. 7C; Fig. 7D with co-expressed inactive HA-NS3(S139A)/4A); same lysis buffer, 4°C overnight; immunoblot.
Experiment [4] has as its target T3, TIP47 (construct of Fig. 7F, precipitated with anti-c-Myc MAb) (UniProt O60664).
T3 sequence: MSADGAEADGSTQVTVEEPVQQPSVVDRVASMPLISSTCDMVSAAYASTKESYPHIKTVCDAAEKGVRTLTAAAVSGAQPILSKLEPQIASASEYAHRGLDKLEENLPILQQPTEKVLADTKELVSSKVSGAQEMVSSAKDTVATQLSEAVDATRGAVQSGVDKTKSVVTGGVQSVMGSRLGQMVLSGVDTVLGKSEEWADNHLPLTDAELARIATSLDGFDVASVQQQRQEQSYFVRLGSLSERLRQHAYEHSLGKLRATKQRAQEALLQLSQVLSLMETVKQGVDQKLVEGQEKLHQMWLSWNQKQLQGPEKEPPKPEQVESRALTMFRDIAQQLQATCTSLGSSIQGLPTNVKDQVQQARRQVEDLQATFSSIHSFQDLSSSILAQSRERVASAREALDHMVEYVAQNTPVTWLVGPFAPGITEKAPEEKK
Description: co-IP; Huh-7.5 cells transfected with the plasmids as indicated and then infected with HCV J6/JFH1 at an m.o.i. of 2, harvested 48 h after infection; immunoprecipitated with anti-c-Myc MAb (Fig. 7F); immunoblot.

In experiment [5] the target is FLAG-Itch (ubiquitin ligase Itch, atrophin-1-interacting protein 4), Q96J02. Description: co-IP; Huh-7.5 cells co-transfected with pCAG-FLAG-Itch and pCAG-HA-ADRP, harvested 48 h after transfection; lysis buffer 150 mM NaCl, 10 mM Tris-HCl pH 7.4, 0.1% SDS, 1% sodium deoxycholic acid, 1% Triton X-100; immunoprecipitated with anti-HA PAb (Fig. 4E) or anti-FLAG MAb (Fig. 4F) at 4°C overnight, normal IgG as control; immunoblot. Particulars: remark: other sources report otherwise.

Experiment [6] deals with T4, SPG20-FLAG (SPG20/Spartin, C-terminally FLAG-tagged) (UniProt Q8N0X7).
T4 sequence: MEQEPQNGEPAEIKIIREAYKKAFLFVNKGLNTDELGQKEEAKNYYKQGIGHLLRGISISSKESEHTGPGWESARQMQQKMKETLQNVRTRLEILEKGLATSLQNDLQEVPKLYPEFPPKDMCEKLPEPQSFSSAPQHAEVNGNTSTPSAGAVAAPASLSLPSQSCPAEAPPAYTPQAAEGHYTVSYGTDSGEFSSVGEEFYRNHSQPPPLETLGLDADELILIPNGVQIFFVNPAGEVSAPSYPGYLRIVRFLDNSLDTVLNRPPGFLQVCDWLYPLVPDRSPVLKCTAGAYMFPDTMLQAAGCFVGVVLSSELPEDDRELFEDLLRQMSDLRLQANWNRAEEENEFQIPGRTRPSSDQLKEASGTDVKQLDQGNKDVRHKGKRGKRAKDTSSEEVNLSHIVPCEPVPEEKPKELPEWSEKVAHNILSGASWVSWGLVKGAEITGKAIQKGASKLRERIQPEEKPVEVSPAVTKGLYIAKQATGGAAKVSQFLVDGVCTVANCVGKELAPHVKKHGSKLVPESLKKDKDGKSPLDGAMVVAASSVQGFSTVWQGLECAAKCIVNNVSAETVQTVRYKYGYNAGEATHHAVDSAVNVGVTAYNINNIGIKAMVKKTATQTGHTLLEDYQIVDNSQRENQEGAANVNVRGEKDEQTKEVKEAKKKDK
Description: co-IP; Huh-7.5 cells co-transfected with pCAG-SPG20-FLAG and pCAG-HA-TIP47, 48 h; immunoprecipitated with anti-FLAG M2 beads (Fig. 7B) or anti-TIP47 antibody (Fig. 7C; Fig. 7D with co-expressed inactive HA-NS3(S139A)/4A); same lysis buffer, 4°C overnight; immunoblot.

These are yes or no findings as the source states them, for the method shown. In cells and extracts the contact can be indirect. Some results given as binding are weak or reduced against the parent protein; the word gives no strength. Where a sequence is shown, tags or fusion partners need not be part of it.

B1: SPG20-FLAG (SPG20/Spartin, C-terminally FLAG-tagged) (protein, UniProt Q8N0X7 1-666)
chain: MEQEPQNGEPAEIKIIREAYKKAFLFVNKGLNTDELGQKEEAKNYYKQGIGHLLRGISISSKESEHTGPGWESARQMQQKMKETLQNVRTRLEILEKGLATSLQNDLQEVPKLYPEFPPKDMCEKLPEPQSFSSAPQHAEVNGNTSTPSAGAVAAPASLSLPSQSCPAEAPPAYTPQAAEGHYTVSYGTDSGEFSSVGEEFYRNHSQPPPLETLGLDADELILIPNGVQIFFVNPAGEVSAPSYPGYLRIVRFLDNSLDTVLNRPPGFLQVCDWLYPLVPDRSPVLKCTAGAYMFPDTMLQAAGCFVGVVLSSELPEDDRELFEDLLRQMSDLRLQANWNRAEEENEFQIPGRTRPSSDQLKEASGTDVKQLDQGNKDVRHKGKRGKRAKDTSSEEVNLSHIVPCEPVPEEKPKELPEWSEKVAHNILSGASWVSWGLVKGAEITGKAIQKGASKLRERIQPEEKPVEVSPAVTKGLYIAKQATGGAAKVSQFLVDGVCTVANCVGKELAPHVKKHGSKLVPESLKKDKDGKSPLDGAMVVAASSVQGFSTVWQGLECAAKCIVNNVSAETVQTVRYKYGYNAGEATHHAVDSAVNVGVTAYNINNIGIKAMVKKTATQTGHTLLEDYQIVDNSQRENQEGAANVNVRGEKDEQTKEVKEAKKKDK
Regarding B1, the figures for the binding result in experiment [1], in experiment [2] and in experiment [3] were “binds”, “no binding” and “binds”, respectively.

B2: SPG20 C504A-FLAG (protein, UniProt Q8N0X7 1-666)
chain: MEQEPQNGEPAEIKIIREAYKKAFLFVNKGLNTDELGQKEEAKNYYKQGIGHLLRGISISSKESEHTGPGWESARQMQQKMKETLQNVRTRLEILEKGLATSLQNDLQEVPKLYPEFPPKDMCEKLPEPQSFSSAPQHAEVNGNTSTPSAGAVAAPASLSLPSQSCPAEAPPAYTPQAAEGHYTVSYGTDSGEFSSVGEEFYRNHSQPPPLETLGLDADELILIPNGVQIFFVNPAGEVSAPSYPGYLRIVRFLDNSLDTVLNRPPGFLQVCDWLYPLVPDRSPVLKCTAGAYMFPDTMLQAAGCFVGVVLSSELPEDDRELFEDLLRQMSDLRLQANWNRAEEENEFQIPGRTRPSSDQLKEASGTDVKQLDQGNKDVRHKGKRGKRAKDTSSEEVNLSHIVPCEPVPEEKPKELPEWSEKVAHNILSGASWVSWGLVKGAEITGKAIQKGASKLRERIQPEEKPVEVSPAVTKGLYIAKQATGGAAKVSQFLVDGVCTVANAVGKELAPHVKKHGSKLVPESLKKDKDGKSPLDGAMVVAASSVQGFSTVWQGLECAAKCIVNNVSAETVQTVRYKYGYNAGEATHHAVDSAVNVGVTAYNINNIGIKAMVKKTATQTGHTLLEDYQIVDNSQRENQEGAANVNVRGEKDEQTKEVKEAKKKDK
Regarding B2, the binding entry in experiment [4] is on record as “binds”.

B3: HA-ADRP (adipophilin, ADRP/PLIN2), Q99541 1-437 (protein)
chain: MASVAVDPQPSVVTRVVNLPLVSSTYDLMSSAYLSTKDQYPYLKSVCEMAENGVKTITSVAMTSALPIIQKLEPQIAVANTYACKGLDRIEERLPILNQPSTQIVANAKGAVTGAKDAVTTTVTGAKDSVASTITGVMDKTKGAVTGSVEKTKSVVSGSINTVLGSRMMQLVSSGVENALTKSELLVEQYLPLTEEELEKEAKKVEGFDLVQKPSYYVRLGSLSTKLHSRAYQQALSRVKEAKQKSQQTISQLHSTVHLIEFARKNVYSANQKIQDAQDKLYLSWVEWKRSIGYDDTDESHCAEHIESRTLAIARNLTQQLQTTCHTLLSNIQGVPQNIQDQAKHMGVMAGDIYSVFRNAASFKEVSDSLLTSSKGQLQKMKESLDDVMDYLVNNTPLNWLVGPFYPQLTESQNAQDQGAEMDKSSQETQRSEHKTH
Take B3: the binding result in experiment [5] was “binds”.

B4: HA-TIP47 (tail-interacting protein of 47 kDa, TIP47/PLIN3) (protein, UniProt O60664 1-434)
chain: MSADGAEADGSTQVTVEEPVQQPSVVDRVASMPLISSTCDMVSAAYASTKESYPHIKTVCDAAEKGVRTLTAAAVSGAQPILSKLEPQIASASEYAHRGLDKLEENLPILQQPTEKVLADTKELVSSKVSGAQEMVSSAKDTVATQLSEAVDATRGAVQSGVDKTKSVVTGGVQSVMGSRLGQMVLSGVDTVLGKSEEWADNHLPLTDAELARIATSLDGFDVASVQQQRQEQSYFVRLGSLSERLRQHAYEHSLGKLRATKQRAQEALLQLSQVLSLMETVKQGVDQKLVEGQEKLHQMWLSWNQKQLQGPEKEPPKPEQVESRALTMFRDIAQQLQATCTSLGSSIQGLPTNVKDQVQQARRQVEDLQATFSSIHSFQDLSSSILAQSRERVASAREALDHMVEYVAQNTPVTWLVGPFAPGITEKAPEEKK
Consider B4, for which the binding entry in experiment [6] is listed as “binds”.
